Laboratory results from the CheMixHub viscosity set.
“And” between values parts separate entries of the source, which are not always exact repeats. Equal entries are not always repeated. This continues a long series; more values of the same kind are listed elsewhere.

C1CCCCC1
Conditions	viscosity
298.1 K, 101 kPa	0.841 mPa·s and 0.841 mPa·s
298.15 K, 101 kPa	0.8856 mPa·s and 0.889 mPa·s
303.15 K, 101 kPa	0.819 mPa·s
308 K, 101 kPa	0.7836 mPa·s
308.15 K, 101 kPa	0.7607 mPa·s and 0.7367 mPa·s and 0.7503 mPa·s
313.15 K, 101 kPa	0.7148 mPa·s
318.15 K, 101.33 kPa	0.6536 mPa·s
323.15 K, 100 kPa	0.6089 mPa·s
323.15 K, 101.33 kPa	0.6045 mPa·s
